In PMC4336329 (PLoS ONE, 2015):
In all, about 310,000 compounds went through this assay and about 14,000 (4.5%) showed an effect of 50% or more. The effect is printed as a negative number. The list shows a part of the results.

Target: human ether-à-go-go-related gene (hERG) potassium channel (human, UniProt Q12809)
Experiment: primary screen, population patch clamp on CHO cells stably expressing hERG
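Also: peak tail current of the secondary pulse compared with the same well before compound.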

Sequence of human ether-à-go-go-related gene (hERG) potassium channel (Q12809 whole entry, looked up): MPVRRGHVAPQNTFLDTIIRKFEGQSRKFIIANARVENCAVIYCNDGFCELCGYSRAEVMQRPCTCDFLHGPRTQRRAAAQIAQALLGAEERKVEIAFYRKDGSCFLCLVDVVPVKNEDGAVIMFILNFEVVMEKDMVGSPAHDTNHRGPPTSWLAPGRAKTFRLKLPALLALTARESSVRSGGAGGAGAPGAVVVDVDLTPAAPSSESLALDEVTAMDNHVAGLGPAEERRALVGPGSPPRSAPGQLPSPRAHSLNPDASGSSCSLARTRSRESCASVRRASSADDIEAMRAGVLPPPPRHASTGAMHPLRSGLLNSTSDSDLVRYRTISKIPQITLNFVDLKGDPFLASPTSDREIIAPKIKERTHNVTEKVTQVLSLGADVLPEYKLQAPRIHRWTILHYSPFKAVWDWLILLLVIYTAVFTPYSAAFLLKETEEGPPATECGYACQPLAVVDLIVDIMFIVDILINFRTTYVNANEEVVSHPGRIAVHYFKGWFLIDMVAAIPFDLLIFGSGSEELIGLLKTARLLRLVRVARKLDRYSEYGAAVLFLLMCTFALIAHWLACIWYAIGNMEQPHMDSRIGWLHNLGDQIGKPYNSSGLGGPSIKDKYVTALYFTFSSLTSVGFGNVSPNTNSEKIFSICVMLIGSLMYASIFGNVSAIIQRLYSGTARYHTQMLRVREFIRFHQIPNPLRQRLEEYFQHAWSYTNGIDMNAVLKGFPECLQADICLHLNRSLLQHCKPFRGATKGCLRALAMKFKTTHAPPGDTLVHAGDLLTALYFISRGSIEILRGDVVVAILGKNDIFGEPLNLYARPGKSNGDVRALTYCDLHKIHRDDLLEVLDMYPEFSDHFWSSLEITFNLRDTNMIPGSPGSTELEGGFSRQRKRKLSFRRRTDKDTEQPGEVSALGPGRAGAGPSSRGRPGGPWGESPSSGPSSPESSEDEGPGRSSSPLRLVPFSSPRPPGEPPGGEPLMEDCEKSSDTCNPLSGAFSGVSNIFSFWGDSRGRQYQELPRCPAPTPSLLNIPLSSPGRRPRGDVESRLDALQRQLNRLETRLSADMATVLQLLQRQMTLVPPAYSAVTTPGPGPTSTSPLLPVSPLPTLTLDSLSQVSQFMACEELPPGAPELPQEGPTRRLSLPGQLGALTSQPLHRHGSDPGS

| SMILES | hERG current change (%, negative = inhibition) at 10uM [%] |
| --- | --- |
| COc1cc(NC(=O)CSc2nnc(-c3ccncc3)n2C2CCCCC2)ccc1NC(=O)c1ccco1 | -6.13 |
| CC(C)OCCCn1c(=N)c(C(N)=S)cc2c(=O)n3ccccc3nc21 | -81.5 |
| CCCCN(C(=O)COC(=O)c1ccc(C=O)cc1)c1c(N)n(CCC)c(=O)[nH]c1=O | 3.95 |
| C#CCOCCOCCOCCNc1nc(N2CCN(C(=O)[C@H]([C@@H](C)CC)n3cc([C@@H](N)Cc4ccc(O)cc4)nn3)CC2)nc(N2CCN(C(=O)[C@H](CCCCN)n3cc([C@@H](N)CC(C)C)nn3)CC2)n1.Cl | 2.93 |
| CCN(CC(=O)Nc1ccc(OC)cc1)C(=O)c1ccc2c(=O)n3c(nc2c1)CCC3 | 9.77 |
| CCOC(=O)C1(CCOC)CCN(C(=O)Cc2ccsc2)CC1 | 5.55 |
| Cc1ccc(N/N=C(\C#N)C(=N)N2CCCCCC2)cc1 | 12.7 |
| CC(=O)NC1CCN(C(=O)N2CCCC2)CC1 | -14.7 |
| Cc1cc(-n2c(SCCC#N)nnc2-c2cccnc2)ccc1Cl | -23 |
| CCc1ccc(Nc2nc(N)nc(CSc3nc4ccccc4s3)n2)cc1 | 9.26 |
| O=C(NCCC(=O)N1CCC2(CC1)NCCc1[nH]cnc12)c1ccc(Br)cc1 | 14.2 |
| CN(C)S(=O)(=O)c1ccc(N2CCCC2)c(C(=O)N2CCN(S(=O)(=O)c3ccc(F)cc3)CC2)c1 | -31.9 |
| CC(C)(C)Nc1nc(OCC#N)nc(N2CCCCC2)n1 | -37.5 |
| CC(NC(=O)C1CCCN(S(=O)(=O)c2ccc(-n3cnnn3)cc2)C1)c1ccc(F)cc1 (stereo not drawn) | -7.46 |
| CN(CC(=O)NCc1ccccc1Cl)CC(=O)Nc1cccc(F)c1 | -17.8 |
| CC(C)C(NC(=O)c1ccco1)C(=O)NC1CCCCCC1 (stereo not drawn) | 14.6 |
| CN(CC(=O)NC1CCCCCCC1)S(=O)(=O)c1cccc2cccnc12 | -28.8 |
| CN(C(=O)c1ccc(-c2nn(C)c(=O)c3ccccc23)cc1)C1CCCCC1 | -3.13 |
| Cc1oc(-c2ccccc2F)nc1CN1CCC(C(=O)NC2CC2)CC1 | -34.3 |
| Cc1ccc(S(=O)(=O)N2Cc3ccccc3CC2C(=O)Nn2cnnc2)cc1 (stereo not drawn) | -9.56 |
| O=C(Nc1nc(-c2ccccc2)cs1)c1ccc(Br)o1 | -9.78 |

| SMILES | hERG current change (%, negative = inhibition) at 10uM [%] |
| --- | --- |
| O=C(C1CCN(S(=O)(=O)c2ccc(Cl)cc2)CC1)N1CCOCC1 | -6.76 |
| CN(C)S(=O)(=O)c1cc(NC(=O)C2=COCCO2)ccc1Cl | -3.35 |
| CCOC(=O)/C(=N\Nc1ccccc1)P(=O)(c1ccccc1)c1ccccc1 | -34.6 |
| Cl.NCCNCCNCCN | 15.5 |
| CC(NC(=O)c1ccc(-c2cc(C(F)(F)F)ccc2Cl)o1)c1ccccc1 (stereo not drawn) | 12.9 |
| CN(c1ncc(C(F)(F)F)cc1Cl)n1cc(C(N)=O)c2ccccc2c1=O | -0.468 |
| CCCCc1nnc(NC(=O)CSc2nc(O)c(Cc3ccccc3)c(=O)[nH]2)s1 | 29.8 |
| CCc1ccc(/C=C2/Sc3ccccc3N(CC(=O)NCCCOC)C2=O)cc1 | -13.7 |
| COc1ccc(Cl)cc1NC(=O)CN1CCC(n2nnc3cc(F)ccc32)CC1 | -7.93 |
| CCOc1cccc2sc(N(CCN(C)C)C(=O)CCS(=O)(=O)c3ccccc3)nc12.Cl | -23.5 |
| CCN(CC)S(=O)(=O)c1ccc2[nH]cc(C(=O)NCCN3CCCCCC3)c(=O)c2c1 | -6.35 |
| CN1C/C(=C/c2cccnc2)C(=O)/C(=C/c2cccnc2)C1 | -49.5 |
| CC1S/C(=N\N=C\c2cccc([N+](=O)[O-])c2)N(C(C)(C)C)C1=O (stereo not drawn) | 11.4 |
| Cc1ccc(OCCC(=O)OCC(=O)NC(=O)NCc2ccccc2)cc1 | 3.82 |
| CCC(CC)c1nnc(NC(=O)c2c(C)nn(Cc3ccccc3Cl)c2C)s1 | 2.87 |
| COc1ccc(S(=O)(=O)NCCCCC(=O)O)cc1C(=O)O | -0.701 |
| COC(=O)c1sc(NC(=S)NC(=O)c2ccc(C)cc2)nc1C | 14 |
| CC(=O)N1c2ccccc2-c2nc3ccccc3n2C1C (stereo not drawn) | -1.08 |
| Cc1cccc(N2C(=O)CC(N3CCN(c4ccc(Cl)cc4)CC3)C2=O)c1 (stereo not drawn) | 7.61 |
| COc1ccc(CCNC(=O)c2cc(-c3ccccn3)nc3c(Cl)cccc23)cc1OC | 10.5 |
| O=C(Cc1cccc(NC(=O)C2CCN(C(=O)C3CCCC3)CC2)c1)Nc1cccc(C(=O)N2CCCC2)c1 | 10.9 |
